# Assay results reported in PubChem BioAssay (NCATS).
# The shares of active, inactive and inconclusive entries below differ from those in the screen. For some of these results: Where the call is inconclusive, the potency comes from a doubtful curve fit. Activity calls are given as the source filed them. Unless noted, calls follow the shape of the dose curve; as a rule, active = well fitted curve in the direction sought with a large enough effect; inconclusive = small, poorly fitted or top-dose-only effect, or another doubt; inactive = no such curve, though single readings can be large; an effect the other way counts as inactive or inconclusive.
# Legend:
# [1] = molecular target: Flap endonuclease 1 (Homo sapiens) (UniProt P39748); test: qHTS Assay for the Inhibitors of FEN1: Confirmatory Assay for Cherry-picked Compounds (AID 720498); settings: FEN1 flap cleavage, TAMRA/BHQ2 fluorogenic DNA substrate; also: potency is read from the fitted curve at half-maximal effect; nearly all actives have a fitted effect of over 60% in size
# Procedure, shortened: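 FEN1 at 10 nM was preincubated with compound for 15 min at room temperature, then 50 nM (final) double-flap DNA substrate was added. TAMRA fluorescence released from the BHQ-2-quenched flap was read at 0 and 15 min (ex 525/em 598 nm).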
# [2] = molecular target: DNA polymerase eta (Homo sapiens) (UniProt Q9Y253); test: qHTS for Inhibitors of Polymerase Eta: Confirmatory Assay for Cherry-picked Compounds (AID 720502); settings: Pol eta primer extension, TAMRA/BHQ fluorescence, 10 min; also: potency is read from the fitted curve at half-maximal effect
# Procedure, shortened: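 Enzyme at 10 nM is mixed with pin-transferred compound and left 15 min at room temperature. Substrate (50 nM final) is then added, and plates are read at 0 min and after 10 min.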
# [3] = molecular target: DNA polymerase iota (Homo sapiens) (UniProt Q9UNA4); test: qHTS for Inhibitors of Polymerase Iota: Confirmatory Assay for Cherry-picked Compounds (AID 720496); settings: Pol iota primer extension, TAMRA/BHQ fluorescence; also: potency is read from the fitted curve at half-maximal effect
# Procedure, shortened: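 Step 1: 10 nM Pol iota with compound, 15 min, room temperature. Step 2: 50 nM final quenched DNA substrate added. Step 3: fluorescence (ex 525, em 598 nm) read at 0 and after 10 min.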
# [4] = MultiTox-Fluor Cytotoxicity Assay - LYMP1-002 - Dead Cells (AID 960); settings: LYMP1-002 lymphoblastoid cells, dead-cell protease fluorescence; cytotoxicity (dead cells): at 46.1 µM (top of the series); also: potency is read from the fitted curve at half-maximal effect; nearly all actives have a fitted effect of over 60% in size
# Procedure, shortened: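 Human lymphoblastoid LYMP1-002 cells, 2500/well, treated 16 h at 37 C; dead-cell protease cleavage of bis-AAF-R110 read by fluorescence (485/520); normalized to DMSO and 15 uM tetraoctylammonium bromide; AC50 from Hill fit.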
# [5] = qHTS assay to identify small molecules that stimulate interleukin-8 (IL-8) secretion (AID 651758; active = well fitted activation curve with a large enough effect in the signal ratio; inconclusive = small, poorly fitted or top-dose-only effect, or effect the other way, or a change in a side signal; the % refers to the signal ratio; also: potency is read from the fitted curve at half-maximal effect; as to activation: 0% is about no effect); settings: HTRF ratio (665/615); activation: at 92.2 µM (top of the series)
# Procedure, shortened: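 THP-1 cells (2000/well) exposed to compound 16 h at 37 C; secreted IL-8 then detected by HTRF with cryptate- and XL665-labelled anti-IL-8 antibody pair after 1-3 h at room temperature.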
# [6] = qHTS assay for small molecule antagonists of the retinoid-related orphan receptor gamma (ROR-gamma) signaling pathway - cell viability counter screen (AID 720652; active = well fitted curve in the direction sought with a large enough effect in the repeat runs; inconclusive = weak or mixed curves; inactive = no such curve, though single readings can be large; an effect the other way counts as inactive or inconclusive;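 also: potency is read from the fitted curve at half-maximal effect; compound exposure lasted 16 hr before ATP read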); settings: RORgamma reporter cell line viability counter screen; series mostly up to 92.2 µM
# Procedure, shortened: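 CHO cells carrying TET-inducible ROR and RORE-luciferase reporter, plated 5 hr, then dosed with compound plus doxycycline. After 16 hr at 37 C, viability read as intracellular ATP by CellTiter-Glo luminescence.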
# [7] = qHTS assay for small molecule agonists of the antioxidant response element (ARE) signaling pathway (AID 651741; active = well fitted activation curve with a large enough effect in the signal ratio; inconclusive = small, poorly fitted or top-dose-only effect, or effect the other way, or a change in a side signal; the % refers to the signal ratio; also: potency is read from the fitted curve at half-maximal effect; as to activation: % of control where 0% means no effect); settings: HepG2 ARE-bla reporter, beta-lactamase FRET ratio, 16 h; activation: at 96 µM (top of the series) unless noted
# Procedure, shortened: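 CellSensor ARE-bla HepG2 cells (2,000/well) carrying ARE-driven beta-lactamase, exposed 16 h at 37 C. LiveBLAzer B/G FRET substrate added for 2 h at room temperature; fluorescence intensity read.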
# [8] = molecular target: Phosphoglycerate kinase, glycosomal (Trypanosoma brucei brucei) (UniProt P07378); test: qHTS for inhibitors of Phosphogylcerate Kinase: Hit Validation Screen (AID 686980); settings: TbPGK coupled GAPDH assay, Kinase-Glo luminescence; also: potency is read from the fitted curve at half-maximal effect; nearly all actives have a fitted effect of over 65% in size
# Procedure, shortened: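 Luminescent ATP detection (Kinase-Glo Plus) follows a 60-minute room-temperature incubation, with wells lacking PGK as controls. Buffer: 100 mM TEA (pH 7.6), 5 mM MgCl2, 0.01% Tween-20. Coupling enzyme GAPDH (100 nM final) supplies unstable 1,3-BPG in-well.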
# [9] = molecular target: Peroxisome proliferator-activated receptor alpha (Homo sapiens) (UniProt Q07869); test: qHTS assay for small molecule agonists of the peroxisome proliferator-activated receptor alpha (PPARalpha) signaling pathway (AID 651778); settings: PathHunter PPARalpha complementation, chemiluminescence, 6 h; max response: active compounds read high; also: potency is read from the fitted curve at half-maximal effect
# Procedure, shortened: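 Enzyme-fragment complementation assay in which ligand-bound PPARalpha translocates and forms an active enzyme that generates chemiluminescence. Cells were plated overnight, exposed to compound for 6 hr at 37 C, and then given detection reagent for 60 min at room temperature.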
# [10] = qHTS Assay for Identifying Gametocytocidal Compounds (AID 743244);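 also: % is scaled to controls: 0 for no effect and ±100 for the full control effect; actives lower the fluorescent signal which means gametocytes are killed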; settings: P. falciparum 3D7 stage III-V gametocytes, alamarBlue, 72 h; max response: active compounds read low
# Procedure, shortened: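 Compounds are pinned into medium, gametocytes (stage III–V, 3D7, 20,000 cells/well) added, and plates held 72 h at 37 °C in 5% CO2. AlamarBlue follows for 24 h before fluorescence reading.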
# [11] = Cell Viability - LYMP2-017 (AID 972); settings: LYMP2-017 lymphoblastoid cell viability; series mostly up to 92.2 µM; also: potency is read from the fitted curve at half-maximal effect; nearly all actives have a fitted effect of over 55% in size
# Procedure, shortened: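 LYMP2-017 human lymphoblastoid cells (2500/well) settled 5 hr at 37 C, then exposed to compound 24 hr at 37 C in complete medium. Viability taken as intracellular ATP by CellTiter-Glo luminescence after 30 min at RT; AC50 from Hill fits.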
# [12] = molecular target: Nuclear receptor ROR-gamma (Homo sapiens) (UniProt P51449); test: qHTS assay for small molecule antagonists of the retinoid-related orphan receptor gamma (ROR-gamma) signaling pathway (AID 651802); settings: ROR-gamma antagonist cell reporter assay; series mostly up to 92.2 µM; also: potency is read from the fitted curve at half-maximal effect; nearly all actives have a fitted effect of over 60% in size
# Procedure, shortened: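 CHO cells with TET-inducible ROR-gamma and RORE-luciferase reporter, dosed then doxycycline-induced. After 16 h at 37C, One-Glo luminescence read; decreased signal indicates antagonism.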
# [13] = qHTS for Inhibitors of WRN Helicase: Thiazole Orange DNA Binding Counterscreen (AID 720499); settings: thiazole orange DNA binding displacement, fluorescence; series mostly up to 57.1 µM;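 also: drop in dye fluorescence marks compound binding to DNA; nearly all actives have a fitted effect of over 60% in size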; also: potency is read from the fitted curve at half-maximal effect
# Procedure, shortened: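 Compounds were pin-transferred into 50 nM unlabeled DNA premixed with 100 nM thiazole orange. After 15 min at room temperature, fluorescence (ex 480 nm, em 530 nm) was read; loss of signal flags dye displacement from nonspecific DNA binders.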
# [14] = Cell Viability - LYMP2-022 (AID 987); settings: LYMP2-022 lymphoblastoid cell viability; series mostly up to 92.2 µM;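 also: 0% = DMSO alone and full effect = tetraoctylammonium bromide at 92 µM; nearly all actives have a fitted effect of over 55% in size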
# Procedure, shortened: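 LYMP2-022 lymphoblastoid cells (2500/well, complete medium) were treated with compounds for 24 hours at 37 C; intracellular ATP was then read by CellTiter-Glo luminescence after 30 min at room temperature. AC50 values were derived from Hill-equation fits.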
# [15] = molecular target: Tumor necrosis factor (Homo sapiens) (UniProt P01375); test: qHTS assay to identify small molecules that stimulate Tumor Necrosis Factor-alpha (TNF-alpha) secretion (AID 651757; active = well fitted curve in the direction sought with a large enough effect in the signal ratio; inconclusive = small, poorly fitted or top-dose-only effect, or a change in a side signal; inactive = no such curve, though single readings can be large or run the other way; the % refers to the signal ratio; also: 0% is about no effect); settings: Human cells, HTRF 665/615 ratio; activation (TNF-alpha secretion): at 92.2 µM (top of the series)
# Procedure, shortened: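 THP-1 cells (3000/well) exposed to compounds 17 hrs at 37 C. Secreted TNF-alpha detected by HTRF with cryptate- and XL665-labeled anti-TNF-alpha antibodies after 3 hr at room temperature.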
# [16] = Cell Viability - LYMP2-001 (AID 921); settings: LYMP2-001 lymphoblastoid cell viability; activity change, negative = cytotoxic: at 92.2 µM (top of the series); also: potency is read from the fitted curve at half-maximal effect; nearly all actives have a fitted effect of over 70% in size
# Procedure, shortened: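 Human lymphoblastoid cells (Coriell), 2500 per well, were preincubated 5 hr at 37 C, then exposed to compounds in complete medium for 24 hr at 37 C. Cellular ATP was read by CellTiter-Glo luminescence; AC50 from Hill fits of concentration-response data.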
# [17] = Cell Viability - LYMP2-004 (AID 966); settings: LYMP2-004 lymphoblastoid cell viability, qHTS; activity change, negative = cytotoxicity: at 92.2 µM (top of the series); also: potency is read from the fitted curve at half-maximal effect; nearly all actives have a fitted effect of over 65% in size
# Procedure, shortened: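 Lymphoblastoid LYMP2-004 cells, 2500 per well, were preincubated for 5 hr and then treated with compound for 24 h at 37 C in complete medium. Viability was read as cellular ATP by CellTiter-Glo luminescence, and AC50 values were taken from Hill fits to concentration-response data.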
# [18] = Cellular Toxicity (caspase-3) NIH 3T3 (AID 666); settings: NIH 3T3 caspase-3 activation, apoptosis/toxicity; series mostly up to 92.2 µM;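 also: caspase signal read after 16 h compound exposure; 0% = DMSO basal and 100% = 100 µM tamoxifen stimulation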
# Procedure, shortened: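 Mouse NIH 3T3 fibroblasts (1000/well) treated 16 h at 37 C; caspase-3/7 activity measured by Caspase-Glo 3/7 luminescence after 20 min. Normalized to DMSO and 100 uM tamoxifen; AC50 from Hill fits.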
# [19] = Cell Viability - LYMP2-005 (AID 967); settings: LYMP2-005 lymphoblastoid cell viability; series mostly up to 92.2 µM; also: potency is read from the fitted curve at half-maximal effect
# Procedure, shortened: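 CellTiter-Glo luminescence (cellular ATP) read-out; LYMP2-005 lymphoblastoid cells, 2500/well, 5 h pre-incubation, then 24 h compound exposure at 37 C in complete medium. Tetraoctylammonium bromide positive control; AC50 by standard Hill fit.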
# [20] = Cell Viability - LYMP2-020 (AID 986); settings: activity change, negative = viability loss: at 92.2 µM (top of the series);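 also: plate controls were DMSO only for no effect and tetraoctylammonium bromide at 92 µM for full effect; nearly all actives have a fitted effect of over 55% in size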
# Procedure, shortened: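 Human lymphoblastoid LYMP2-020 cells (2500/well) preincubated 5 h at 37 C, then treated 24 h at 37 C. Viability measured as intracellular ATP by CellTiter-Glo luminescence after 30 min at room temperature; AC50 from Hill fits.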
# [21] = qHTS assay for small molecule agonists of the antioxidant response element (ARE) signaling pathway measured by Nrf2-dependant transcriptional activity (AID 720636; active = well fitted curve in the direction sought with a large enough effect in the repeat runs; inconclusive = weak or mixed curves; inactive = no such curve, though single readings can be large; an effect the other way counts as inactive or inconclusive; also: potency is read from the fitted curve at half-maximal effect); settings: ARE-luc HepG2, Nrf2 luciferase reporter, 16 h; series mostly up to 92.4 µM
# Procedure, shortened: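 HepG2 ARE-luc reporter line, 1% dialyzed FBS; 6 hr attachment at 37 C, compound pinned in, 16 hr at 37 C/5% CO2; ONE-Glo, 30 min RT, luminescence read.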
# Tags tell the direction and shape of the fitted curve.
# Chain of UniProt P07378 (P07378 whole entry, looked up): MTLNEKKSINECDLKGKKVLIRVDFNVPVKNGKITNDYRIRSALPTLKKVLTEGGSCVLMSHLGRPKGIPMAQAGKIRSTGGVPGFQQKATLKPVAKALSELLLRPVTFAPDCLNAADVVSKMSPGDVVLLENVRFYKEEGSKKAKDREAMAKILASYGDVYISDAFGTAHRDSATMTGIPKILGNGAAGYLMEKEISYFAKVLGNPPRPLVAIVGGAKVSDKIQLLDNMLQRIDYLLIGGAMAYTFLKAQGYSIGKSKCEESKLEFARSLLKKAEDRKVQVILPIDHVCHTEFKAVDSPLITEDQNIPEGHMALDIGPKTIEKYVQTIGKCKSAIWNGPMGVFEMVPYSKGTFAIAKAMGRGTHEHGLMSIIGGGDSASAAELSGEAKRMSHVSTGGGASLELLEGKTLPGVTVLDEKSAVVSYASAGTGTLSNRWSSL
# Chain of UniProt Q9Y253 (Q9Y253 whole entry, looked up): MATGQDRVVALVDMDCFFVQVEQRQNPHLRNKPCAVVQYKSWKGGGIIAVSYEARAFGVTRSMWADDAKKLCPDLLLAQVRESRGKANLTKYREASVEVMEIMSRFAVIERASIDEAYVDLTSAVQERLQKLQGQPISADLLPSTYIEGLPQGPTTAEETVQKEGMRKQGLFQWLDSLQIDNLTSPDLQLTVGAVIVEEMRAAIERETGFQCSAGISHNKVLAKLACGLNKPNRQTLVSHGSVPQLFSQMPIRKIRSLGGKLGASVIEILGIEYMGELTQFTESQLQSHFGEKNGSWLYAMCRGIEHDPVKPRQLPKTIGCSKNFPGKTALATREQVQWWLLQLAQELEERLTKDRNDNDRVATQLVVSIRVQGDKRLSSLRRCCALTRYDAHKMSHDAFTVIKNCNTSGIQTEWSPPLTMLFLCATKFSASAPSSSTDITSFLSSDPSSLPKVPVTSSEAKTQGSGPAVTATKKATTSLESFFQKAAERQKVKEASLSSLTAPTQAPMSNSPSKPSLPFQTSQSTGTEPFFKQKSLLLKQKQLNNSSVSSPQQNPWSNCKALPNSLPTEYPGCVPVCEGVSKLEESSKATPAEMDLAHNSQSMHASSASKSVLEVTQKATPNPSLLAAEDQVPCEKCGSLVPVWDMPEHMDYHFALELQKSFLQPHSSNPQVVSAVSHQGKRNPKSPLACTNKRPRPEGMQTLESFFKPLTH
# Chain of UniProt Q9UNA4 (Q9UNA4 whole entry, looked up): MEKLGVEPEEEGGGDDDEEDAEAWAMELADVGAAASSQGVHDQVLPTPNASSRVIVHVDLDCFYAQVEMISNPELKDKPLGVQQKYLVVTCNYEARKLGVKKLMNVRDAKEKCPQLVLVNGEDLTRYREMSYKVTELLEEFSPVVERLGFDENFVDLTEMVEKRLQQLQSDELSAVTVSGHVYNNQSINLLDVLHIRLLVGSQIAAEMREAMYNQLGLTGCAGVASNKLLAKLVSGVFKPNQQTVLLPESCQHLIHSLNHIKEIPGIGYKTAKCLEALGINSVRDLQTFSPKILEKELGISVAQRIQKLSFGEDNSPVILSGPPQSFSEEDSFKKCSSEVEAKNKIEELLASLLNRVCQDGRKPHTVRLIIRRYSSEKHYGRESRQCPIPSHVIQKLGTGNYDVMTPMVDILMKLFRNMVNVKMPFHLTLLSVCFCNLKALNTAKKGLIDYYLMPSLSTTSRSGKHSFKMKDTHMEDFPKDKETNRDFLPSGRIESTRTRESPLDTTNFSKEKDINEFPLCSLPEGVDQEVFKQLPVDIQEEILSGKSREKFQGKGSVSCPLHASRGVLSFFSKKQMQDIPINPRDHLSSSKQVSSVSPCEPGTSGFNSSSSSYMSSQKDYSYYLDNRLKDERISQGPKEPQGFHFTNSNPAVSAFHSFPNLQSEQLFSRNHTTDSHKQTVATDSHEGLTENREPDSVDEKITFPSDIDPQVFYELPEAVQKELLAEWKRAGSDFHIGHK
# Chain of UniProt P39748 (P39748 whole entry, looked up): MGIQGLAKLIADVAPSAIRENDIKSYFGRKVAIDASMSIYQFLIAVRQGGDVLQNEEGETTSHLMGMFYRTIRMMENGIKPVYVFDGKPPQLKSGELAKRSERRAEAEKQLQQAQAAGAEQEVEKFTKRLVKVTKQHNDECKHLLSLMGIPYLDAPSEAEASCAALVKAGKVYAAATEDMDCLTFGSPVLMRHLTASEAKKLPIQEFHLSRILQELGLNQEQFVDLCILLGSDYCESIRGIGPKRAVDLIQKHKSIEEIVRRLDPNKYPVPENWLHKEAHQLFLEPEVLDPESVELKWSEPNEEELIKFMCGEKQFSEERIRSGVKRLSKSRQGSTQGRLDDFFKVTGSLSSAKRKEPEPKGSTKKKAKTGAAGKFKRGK
# Chain of UniProt P51449 (P51449 whole entry, looked up): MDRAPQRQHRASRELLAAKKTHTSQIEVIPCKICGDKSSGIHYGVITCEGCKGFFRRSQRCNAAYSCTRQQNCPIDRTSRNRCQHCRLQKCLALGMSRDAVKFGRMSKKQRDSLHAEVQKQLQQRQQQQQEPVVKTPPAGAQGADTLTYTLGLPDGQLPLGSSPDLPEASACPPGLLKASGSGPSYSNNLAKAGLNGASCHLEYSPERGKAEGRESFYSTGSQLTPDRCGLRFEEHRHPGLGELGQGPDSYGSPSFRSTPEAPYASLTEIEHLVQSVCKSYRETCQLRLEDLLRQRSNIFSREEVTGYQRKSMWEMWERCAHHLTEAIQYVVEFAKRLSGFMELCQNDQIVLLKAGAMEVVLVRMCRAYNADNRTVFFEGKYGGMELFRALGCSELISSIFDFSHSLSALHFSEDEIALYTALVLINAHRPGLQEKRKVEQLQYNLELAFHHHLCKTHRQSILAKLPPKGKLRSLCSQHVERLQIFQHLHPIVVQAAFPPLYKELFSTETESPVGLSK
# Chain of UniProt P01375 (P01375 whole entry, looked up): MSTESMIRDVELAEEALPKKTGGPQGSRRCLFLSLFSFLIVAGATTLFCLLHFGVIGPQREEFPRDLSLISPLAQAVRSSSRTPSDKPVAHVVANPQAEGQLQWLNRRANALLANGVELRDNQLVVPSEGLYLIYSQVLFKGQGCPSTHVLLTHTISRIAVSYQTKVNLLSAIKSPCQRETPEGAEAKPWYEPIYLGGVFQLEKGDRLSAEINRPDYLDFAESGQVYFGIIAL
# Chain of UniProt Q07869 (Q07869 whole entry, looked up, the tested form may be a part): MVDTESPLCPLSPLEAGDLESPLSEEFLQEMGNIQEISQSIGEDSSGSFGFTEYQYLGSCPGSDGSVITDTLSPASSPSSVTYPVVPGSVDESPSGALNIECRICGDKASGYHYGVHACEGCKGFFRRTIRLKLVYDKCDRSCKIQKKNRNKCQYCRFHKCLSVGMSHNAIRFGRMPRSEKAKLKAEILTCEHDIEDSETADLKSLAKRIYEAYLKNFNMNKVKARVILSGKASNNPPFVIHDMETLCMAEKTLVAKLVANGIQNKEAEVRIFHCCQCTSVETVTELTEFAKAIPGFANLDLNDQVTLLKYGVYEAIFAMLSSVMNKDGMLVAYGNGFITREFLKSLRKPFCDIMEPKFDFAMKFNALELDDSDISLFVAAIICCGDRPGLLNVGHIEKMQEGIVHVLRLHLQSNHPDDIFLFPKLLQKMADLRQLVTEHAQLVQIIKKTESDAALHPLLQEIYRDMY
smiles,measurement,setting,value
CC(C)CS(=O)(=O)C1=NN2C(=N)/C(=C\c3ccc(OC(=O)c4ccco4)cc3)C(=O)N=C2S1,Potency,[1],"inconclusive: 67.5 µM [inhibitor, partial curve]"
same,Potency,[2],active: 23.9 µM
C=CCN1C(=O)NC(=O)/C(=C/c2ccoc2)C1=O,Potency,[3],active: 21.2 µM
COc1ccc(N2C(=O)NC(=O)/C(=C\c3ccc([N+](=O)[O-])s3)C2=O)cc1,Potency,[1],active: 9.53 µM
c1ccc2c(c1)ccc1ncccc12,Potency,[4],"inconclusive: 25.1 µM [cytotoxic, single point]"
same,Potency,[5],"inconclusive: 75 µM [inhibitor, partial curve, poor fit]"
same,Potency,[6],"inconclusive: 66.8 µM [cytotoxic, partial curve, poor fit]"
Cc1c(N)cccc1N,Potency,[7],"inconclusive: 75 µM [activator, partial curve, poor fit]"
same,Potency,[5],"inconclusive: 75 µM [activator, single point]"
CC[n+]1c(/C=C/C=C/c2ccc(N(C)C)cc2)sc2ccccc21,Potency,[8],"inconclusive: 16.3 µM [inhibitor, partial curve]"
CC(C)=CCC[C@@H](C)[C@H]1CC[C@@]2(C)C3=C(CC[C@]12C)[C@@]1(C)CC[C@H](O)C(C)(C)[C@@H]1CC3,Potency,[9],"inconclusive: 12.6 µM [activator, single point]"
O=C(O)CN(CCN(CC(=O)O)CC(=O)O)CC(=O)O,Potency,[7],inactive
same,max response,[10],inactive: 12.5%
O=C1OC(=O)c2ccccc21,Potency,[11],"inconclusive: 79.4 µM [cytotoxic, single point]"
same,Potency,[5],"inconclusive: 75 µM [rising, single point]"
same,Potency,[12],"inconclusive: 1.19 µM [inhibitor, full curve, poor fit]"
Cc1cc(/C=C2\C(=O)NC(=O)N(c3ccccc3F)C2=O)c(C)n1-c1cc(C(=O)O)cc(C(=O)O)c1,Potency,[8],"inconclusive: 16.3 µM [inhibitor, partial curve]"
same,Potency,[3],active: 18.9 µM
O=C(Cc1cc(=O)oc2cc(O)ccc12)NN=Cc1ccc(N(CCCl)CCCl)cc1,Potency,[3],"inconclusive: 59.7 µM [inhibitor, partial curve]"
same,Potency,[1],active: 37.9 µM
same,Potency,[2],"inconclusive: 84.9 µM [inhibitor, single point]"
CN1C(=O)/C(=C\c2ccc(Br)s2)C(=O)NC1=S,Potency,[13],inactive
O=C1C(=Cc2cn(-c3ccccc3)nc2-c2ccc(OCc3ccc(Cl)cc3)cc2)SC(=S)N1CCS(=O)(=O)O,Potency,[13],"inconclusive: 38.3 µM [inhibitor, single point]"
COc1ccc(C=O)cc1OC,Potency,[14],inactive
same,Potency,[7],inactive
same,activation (TNF-alpha secretion),[15],inconclusive: 1.29%
same,activation,[5],inconclusive: -0.181%
O=C1NC(=S)N(C2CC2)C(=O)/C1=C/c1ccc2c(c1)CCN2CCCCl,Potency,[13],"inconclusive: 27.1 µM [inhibitor, partial curve]"
CCN(CC)C(=O)c1ccc2c(c1)C1C=CCC1C(C(=O)O)N2 (stereo unspecified),Potency,[8],"inconclusive: 20.6 µM [inhibitor, partial curve, poor fit]"
Cc1ccccc1C,Potency,[5],"inconclusive: 75 µM [rising, single point]"
same,activation,[5],inconclusive: 24.9%
CN1CCC(N(C)c2nc(-c3ccc([N+](=O)[O-])cc3)nc3ccccc23)CC1,Potency,[1],active: 33.8 µM
Nc1cccc([N+](=O)[O-])c1,Potency,[16],"inconclusive: 0.0008 µM [cytotoxic, full curve, poor fit]"
same,Potency,[17],"inconclusive: 25.1 µM [cytotoxic, full curve, poor fit]"
same,Potency,[7],"inconclusive: 66.8 µM [activator, partial curve]"
CC(C#N)CCC#N (stereo unspecified),Potency,[18],inactive
same,Potency,[19],"inconclusive: 15.8 µM [cytotoxic, partial curve, poor fit]"
same,Potency,[20],inactive
same,Potency,[5],inactive
O=C=Nc1ccc(Cl)cc1,activation,[7],inconclusive: 8.88%
same,Potency,[21],"inconclusive: 61.1 µM [activator, partial curve, poor fit]"
Clc1cc(Cl)cc(Cl)c1,Potency,[12],"inconclusive: 29.8 µM [inhibitor, partial curve, poor fit]"
N#CC(C#N)=Cc1ccc(C=C(C#N)C#N)cc1,Potency,[1],active: 95.3 µM
same,Potency,[2],"inconclusive: 84.9 µM [inhibitor, single point]"
C=CCCC,Potency,[7],active: 66.8 µM
same,Potency,[5],"inconclusive: 75 µM [activator, single point]"
